# Measured values taken from the supplement of paper PMC8728848.
# The list shows a part of the results.
# B1: TIM1 (protein)
# chain: ADGIQSVKVGGEAGPSVTLPCHYSGAVTSMCWNRGSCSLFTCQNGIVWTNGTHVTYRKDTRYKLLGDLSRRDVSLTIENTAVSDSGVYCCRVEHRGWFNDMKITVSLEIVPPHHHHHH
# Assays:
# Assay in all cases: glycan array binding signal (z-score within array); higher = stronger binding
# Details in all cases: glycan notation: IUPAC condensed, linker removed
# [1] = molecular target: Gal6S(b1-4)Glc6S
# Method in brief: (§1)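 Glycan array data came from 3228 arrays in the Consortium for Functional Glycomics database, and only arrays with an available protein sequence were kept. Glycan names were put into IUPAC-condensed notation, and columns mapping to the same glycan were averaged. The binding signal is a within-array Z-score, averaged across arrays of one protein sequence run at different concentrations or buffers and across linkers. A negative Z-score can be read as non-binding.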
# [2] = molecular target: Gal6S(b1-4)GlcNAc
# Method in brief: as §1
# [3] = molecular target: Gal6S(b1-4)GlcNAc6S
# Method in brief: as §1
# [4] = molecular target: GalNAc(a1-3)Gal
# Method in brief: as §1
# [5] = molecular target: GalNAc(a1-3)GalNAc
# Method in brief: as §1
# [6] = molecular target: GalNAc(a1-3)GalNAc(b1-3)Gal(a1-4)Gal(b1-4)Glc
# Method in brief: as §1
# [7] = molecular target: GalNAc(a1-3)GalNAc(b1-3)Gal(a1-4)Gal(b1-4)GlcNAc
# Method in brief: as §1
# [8] = molecular target: GalNAc(b1-3)Gal
# Method in brief: as §1
# [9] = molecular target: GalNAc(b1-3)Gal(a1-4)Gal(b1-4)GlcNAc
# Method in brief: as §1
# [10] = molecular target: GalNAc(b1-3)Gal(a1-4)Gal(b1-4)GlcNAc(b1-3)Gal(b1-4)Glc
# Method in brief: as §1
# [11] = molecular target: GalNAc(b1-3)Gal(a1-6)Gal(b1-4)Glc
# Method in brief: as §1
# [12] = molecular target: GalNAc(b1-3)GalNAc
# Method in brief: as §1
# [13] = molecular target: GalNAc(b1-3)GlcNAc
# Method in brief: as §1
# [14] = molecular target: GalNAc(b1-4)Gal(b1-4)Glc
# Method in brief: as §1
# [15] = molecular target: GalNAc(b1-4)GlcNAc
# Method in brief: as §1
# [16] = molecular target: GalNAc(b1-4)GlcNAc(b1-2)Man
# Method in brief: as §1
# [17] = molecular target: GalNAc(b1-4)GlcNAc(b1-2)Man(a1-3)[GalNAc(b1-4)GlcNAc(b1-2)Man(a1-6)]Man(b1-4)GlcNAc(b1-4)GlcNAc
# Method in brief: as §1
# [18] = molecular target: GalNAc(b1-4)GlcNAc(b1-3)GalNAc(b1-4)GlcNAc
# Method in brief: as §1
# [19] = molecular target: GalNAc(b1-4)GlcNAc6S
# Method in brief: as §1
# [20] = molecular target: GalNAc(b1-6)GalNAc
# Method in brief: as §1
# [21] = molecular target: GalNAc3S(b1-4)GlcNAc
# Method in brief: as §1
# [22] = molecular target: GalNAc3S(b1-4)GlcNAc3S
# Method in brief: as §1
# [23] = molecular target: GalNAc3S(b1-4)[Fuc(a1-3)]GlcNAc
# Method in brief: as §1
# [24] = molecular target: GalNAc4S6S(b1-4)GlcNAc
# Method in brief: as §1
# [25] = molecular target: GalNAc6S(b1-4)GlcNAc
# Method in brief: as §1
# [26] = molecular target: Glc(a1-4)Glc
# Method in brief: as §1
# [27] = molecular target: Glc(a1-4)Glc(a1-4)Glc(a1-4)Glc
# Method in brief: as §1
# [28] = molecular target: Glc(a1-6)Glc(a1-6)Glc
# Method in brief: as §1
# [29] = molecular target: Glc(a1-6)Glc(a1-6)Glc(a1-6)Glc
# Method in brief: as §1
# [30] = molecular target: Glc(b1-4)Glc
# Method in brief: as §1
# [31] = molecular target: Glc(b1-6)Glc
# Method in brief: as §1
# [32] = molecular target: GlcA(b1-3)Gal
# Method in brief: as §1
# [33] = molecular target: GlcA(b1-3)GlcNAc
# Method in brief: as §1
# [34] = molecular target: GlcA(b1-6)Gal
# Method in brief: as §1
# [35] = molecular target: GlcA3S(b1-3)Gal(b1-4)GlcNAc(b1-2)Man
# Method in brief: as §1
# [36] = molecular target: GlcA3S(b1-3)Gal(b1-4)GlcNAc(b1-3)Gal(b1-4)Glc
# Method in brief: as §1
# [37] = molecular target: GlcNAc(a1-3)Gal(b1-4)GlcNAc
# Method in brief: as §1
# [38] = molecular target: GlcNAc(a1-4)Gal(b1-3)GlcNAc
# Method in brief: as §1
# [39] = molecular target: GlcNAc(a1-4)Gal(b1-4)GalNAc
# Method in brief: as §1
# [40] = molecular target: GlcNAc(a1-4)Gal(b1-4)GlcNAc
# Method in brief: as §1
# [41] = molecular target: GlcNAc(a1-4)Gal(b1-4)GlcNAc(b1-3)Gal(b1-4)Glc
# Method in brief: as §1
# [42] = molecular target: GlcNAc(a1-4)Gal(b1-4)GlcNAc(b1-3)Gal(b1-4)GlcNAc
# Method in brief: as §1
# [43] = molecular target: GlcNAc(a1-4)Gal(b1-4)GlcNAc(b1-3)Gal(b1-4)GlcNAc(b1-3)Gal(b1-4)GlcNAc
# Method in brief: as §1
# [44] = molecular target: GlcNAc(a1-4)Gal(b1-4)GlcNAc(b1-3)Gal(b1-4)[Fuc(a1-3)]GlcNAc(b1-3)Gal(b1-4)[Fuc(a1-3)]GlcNAc
# Method in brief: as §1
# [45] = molecular target: GlcNAc(a1-6)Gal(b1-4)GlcNAc
# Method in brief: as §1
binder,measurement,setting,value
B1,glycan array binding signal (z-score),[1],0.013
same,glycan array binding signal (z-score),[2],-0.175
same,glycan array binding signal (z-score),[3],-0.015
same,glycan array binding signal (z-score),[4],-0.084
same,glycan array binding signal (z-score),[5],-0.218
same,glycan array binding signal (z-score),[6],-0.178
same,glycan array binding signal (z-score),[7],-0.2
same,glycan array binding signal (z-score),[8],-0.235
same,glycan array binding signal (z-score),[9],0.287
same,glycan array binding signal (z-score),[10],-0.182
same,glycan array binding signal (z-score),[11],-0.257
same,glycan array binding signal (z-score),[12],-0.14
same,glycan array binding signal (z-score),[13],-0.188
same,glycan array binding signal (z-score),[14],-0.124
same,glycan array binding signal (z-score),[15],0.209
same,glycan array binding signal (z-score),[16],-0.239
same,glycan array binding signal (z-score),[17],-0.156
same,glycan array binding signal (z-score),[18],-0.249
same,glycan array binding signal (z-score),[19],-0.155
same,glycan array binding signal (z-score),[20],-0.136
same,glycan array binding signal (z-score),[21],-0.201
same,glycan array binding signal (z-score),[22],-0.095
same,glycan array binding signal (z-score),[23],-0.172
same,glycan array binding signal (z-score),[24],-0.102
same,glycan array binding signal (z-score),[25],-0.269
same,glycan array binding signal (z-score),[26],-0.198
same,glycan array binding signal (z-score),[27],-0.129
same,glycan array binding signal (z-score),[28],-0.212
same,glycan array binding signal (z-score),[29],0.029
same,glycan array binding signal (z-score),[30],-0.208
same,glycan array binding signal (z-score),[31],0.159
same,glycan array binding signal (z-score),[32],-0.039
same,glycan array binding signal (z-score),[33],-0.181
same,glycan array binding signal (z-score),[34],-0.106
same,glycan array binding signal (z-score),[35],-0.13
same,glycan array binding signal (z-score),[36],-0.033
same,glycan array binding signal (z-score),[37],-0.215
same,glycan array binding signal (z-score),[38],-0.196
same,glycan array binding signal (z-score),[39],0.413
same,glycan array binding signal (z-score),[40],-0.116
same,glycan array binding signal (z-score),[41],-0.203
same,glycan array binding signal (z-score),[42],-0.125
same,glycan array binding signal (z-score),[43],-0.259
same,glycan array binding signal (z-score),[44],2.32
same,glycan array binding signal (z-score),[45],-0.256
